From PubChem BioAssay AID686978 (National Center for Advancing Translational Sciences (NCATS), 2013)
Hit rate of the full screen: of about 420,000 compounds, about 64,000 (15%) were called active. Inconclusive results, whose numbers are uncertain, are shown with a selection of clear calls. Calls come from the whole dose curve; as a rule, active = well fitted inhibition curve with a large enough effect; inconclusive = small, poorly fitted or top-dose-only effect; inactive = flat fitted curve, though single readings scatter. No potency is given beside an inconclusive call; the fits are too rough.

test: qHTS for Inhibitors of human tyrosyl-DNA phosphodiesterase 1 (TDP1): qHTS in cells in absence of CPT; conditions: DT40 Tdp1-/- hTDP1 cells, no CPT, ATP luminescence, 48 h; activity change, negative = growth inhibition: at 46.2 µM (top of the series) unless noted; note: nearly all actives have a fitted effect of over 55% in size
Outline: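 Stably hTDP1-transfected Tdp1-null chicken DT40 cells were treated with library compounds minus camptothecin and grown for at least 48 hr at 37 °C, after which cellular ATP was quantified by luminescence.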
% is set by controls: 0 for no effect and ±100 for the full control effect; potency is the fitted concentration of half-maximal effect; tags give direction and shape of the fitted curve.

| Compound | Potency | activity change, negative = growth inhibition |
| --- | --- | --- |
| CCOC(=O)c1ccc(Nc2cnc3ccccc3n2)cc1 | inconclusive [inhibitor, single point] | – |
| C=C1CCC[C@]2(C)C[C@H]3OC(=O)C(CN(C)CC(OC)OC)[C@H]3CC12 (some centres undefined) | inconclusive [inhibitor, single point] | – |
| CC(C)CN(C(=O)C1=COCCO1)c1c(N)n(Cc2ccccc2)c(=O)[nH]c1=O | – | inactive: 7.96% |
| CCOc1ccc(C2CC(=O)NC(SC)=C2C#N)cc1 (centres undefined) | – | inactive: -6.61% |
| CCc1nc2c(OCc3ccc(Cl)cc3)cccn2c1N(C=O)Cc1ccc(OC)cc1 | inconclusive [inhibitor, partial curve, poor fit] | – |
| O=C(Nc1cccc(C(F)(F)F)c1)c1noc2c1CCc1ccccc1-2 | inconclusive [inhibitor, single point] | – |
| Nc1ccccc1C(=O)NC1CCCCNC1=O (centres undefined) | – | inactive: -4.17% |
| COc1ccc(NC(=O)COC(=O)/C=C/c2ccccc2[N+](=O)[O-])cc1OC | inconclusive [inhibitor, single point] | – |
| Cc1cc(C)n(C(=O)CNC(=O)c2cccc(Cl)c2)n1 | – | inactive: -16% |
| Cc1ccc(N2C(=O)C3CCCN3C2=S)cc1Cl (centres undefined) | – | inactive: 13.8% |
| O=c1cc(CO)oc(CN2CCN(c3cccc(C(F)(F)F)c3)CC2)c1O | inconclusive [inhibitor, single point] | – |
| CCCSc1ccc(C(=O)Nc2ccc(F)cc2F)cn1 | – | inactive: 3.5% |
| CN(c1ccc(C(=O)NCCSCc2ccco2)cc1)S(C)(=O)=O | inconclusive [inhibitor, partial curve, poor fit] | – |
| Nc1nc2c(ncn2[C@@H]2O[C@H](CNCc3ccc(Oc4cc(-n5cccn5)ncn4)cc3)[C@@H](O)[C@H]2O)c(=O)[nH]1 | – | inactive: 18% |
| COc1ccc(/C=N/NC(=O)CN2CCSCC2)c(OC)c1 | inconclusive [inhibitor, single point] | – |
| COc1cc2c(cc1NC(=O)CC1SC(N3CCCC3)=NC1=O)oc1ccccc12 (centres undefined) | active: 20.6 µM | – |
| Cc1cccc(NC(=O)CSc2nc3c(c(=O)[nH]2)CN(Cc2ccc4c(c2)OCO4)CC3)c1C | inconclusive [inhibitor, single point] | – |
| CC(Cl)C(=O)c1ccc2c(c1)CCN2C(=O)C1CC1 (centres undefined) | inconclusive [inhibitor, single point] | – |
| CCOCCCn1c(=S)[nH]c2cc(C(=O)NCc3ccc(F)cc3)ccc2c1=O | – | inactive: 18.1% |
| Cc1cccc(NS(=O)(=O)c2cccc(C(=O)N3CCCCCC3)c2)c1 | inconclusive [inhibitor, single point] | – |
| CC(C)CN(CCCNC(=O)CN1C(=O)COc2ccc(S(=O)(=O)N3CCC(C)CC3)cc21)CC(C)C | inconclusive [inhibitor, single point] | – |
| O=C(Nc1nccs1)c1ccc2nccnc2c1 | inconclusive [inhibitor, partial curve, poor fit] | – |

| Compound | Potency | activity change, negative = growth inhibition |
| --- | --- | --- |
| CCc1ccc(-n2c(=O)c3cccnc3n2CC(=O)NCc2ccc(F)cc2)cc1 | inconclusive [inhibitor, single point] | – |
| CC(C)C(NC(=O)c1ccccc1)C(=O)OCc1cc([N+](=O)[O-])cc2c1OCOC2 (centres undefined) | active: 11.6 µM | – |
| CC(Oc1cccc(Cl)c1)C(=O)NCCCCc1ccccc1 (centres undefined) | inconclusive [inhibitor, partial curve] | – |
| O=c1c2c3c(sc2nc2n1CCCCC2)C(O)CCC3 (centres undefined) | inconclusive [inhibitor, single point] | – |
| C[C@]1(C(=O)NCCc2c[nH]c3ccccc23)C=C[C@@H](Cc2ccccc2)N1C(=O)c1ccccc1 | inconclusive [inhibitor, single point] | – |
| COc1ccc(OC)c(S(=O)(=O)N2CCC(C(=O)NC3CCCCCC3)CC2)c1 | inconclusive [inhibitor, partial curve] | – |
| COc1cc(N(C)C)ccc1/C=C/c1ccnc2ccccc12 | active: 25.1 µM | – |
| CCOC(=O)[C@@H]1[C@H]2COc3ccccc3[C@@H]2N2C(=O)N(c3cccc(C)c3)C(=O)[C@]12C | inconclusive [inhibitor, single point] | – |
| O=C(CCN1C(=O)c2ccccc2C1=O)Nn1cnnc1 | – | inactive: -15.4% |
| Cn1c(=O)c(=O)n(C)c2cc(S(=O)(=O)N3CCN(c4ccccc4F)CC3)ccc21 | inconclusive [inhibitor, partial curve] | – |
| COc1ccc(C2C3C(C)=NN=C3CC(C)(O)C2C(C)=O)cc1 (centres undefined) | – | inactive: 4.03% |
| Oc1ccc(Br)cc1Cn1nnc2ccccc21 | inconclusive [inhibitor, single point] | – |
| O=C(CSc1nc2c(c(=O)[nH]1)CN(Cc1ccc(F)cc1)CC2)Nc1ccc(F)cc1 | active: 16.4 µM | – |
| CC(=O)N(C)C[C@@H]1Oc2ncc(C#Cc3ccc(F)cc3)cc2C(=O)N([C@@H](C)CO)C[C@H]1C | – | inactive: -20.9% |
| CCOCN(C(=O)Cn1c(C(C)O)nc2ccccc21)c1c(C)cccc1CC (centres undefined) | inconclusive [inhibitor, single point] | – |
| CCOC(=O)N1CCc2c(sc3c2c(=O)n(Cc2ccccc2)c(=O)n3CC(=O)Nc2c(C)cccc2C)C1 | inconclusive [inhibitor, full curve] | – |
| Cc1cccc(C(=O)N2CCN(c3ccc([N+](=O)[O-])c(NCc4ccco4)c3)CC2)c1 | active: 20.6 µM | – |
| CC(C)n1cc(C(N)=S)c(=O)n(Cc2ccccc2)c1=O | inconclusive [inhibitor, single point] | – |
| COc1ccccc1NC(=O)CCN1CCC(C(N)=O)CC1 | – | inactive: -5.92% |
| O=C(Nc1ccc(F)c(Cl)c1)C1Cc2c(-c3ccc(Cl)cc3)ccnc2O1 (centres undefined) | inconclusive [inhibitor, single point] | – |
| COC(=O)c1c(NC(=O)C2CC2)sc(C(=O)Nc2ccccc2)c1C | inconclusive [inhibitor, single point] | – |
| COc1ccccc1N1CSC2=C(C#N)C(c3ccc(SC)cc3)CC(=O)N2C1 (centres undefined) | active: 23.1 µM | – |
